From article PMC5892938 come the findings set out here.

The list shows a part of the results. At the low end of the ranking, values are background and their order means little.

This assay concerns the target GST-SBP-SLBP (stem-loop binding protein) (UniProt Q14493). Description: targeted RNA Bind-n-Seq.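 Note: DESeq read counts versus GST-SBP nonspecific binding control pulldown.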 Particulars: RBNS binding buffer: 25 mM Tris pH 7.5, 150 mM KCl, 3 mM MgCl2, 0.1% Tween, 0.5 mg/mL BSA, 1 mM DTT; 27 nM protein, 750 pM RNA pool; temperature not stated; high values mean tight binding.
Regarding “GGUCACGUCUCAAUCAACUCAGUCCCCAGGGAAAUCCCUGGCAUAUUCAACAGCUCGCAGUCAAG”, the binding signal (log2 fold change) was -0.0274. Consider “GGUCACGUCUCAAUCAACUCAUUCUCAGGAGUUUUCUCCUGCUAUUUCAACAGCUCGCAGUCAAG”, for which the binding signal (log2 fold change) turned out to be 0.0836. On to “GGUCACGUCUCAAUCAACUCAAAAGAGGGGGGGAAAACCCCUUUGCCCUCGUCAUCAACAGCUCGCAGUCAAG”, for which the binding signal (log2 fold change) is -0.00746. As to “GGUCACGUCUCAAUCAACUCUUUCCCCAGGGAAACCCCUGGCAAUCUCAACAGCUCGCAGUCAAG”, the binding signal (log2 fold change) is -0.307.

For the sequence “GGUCACGUCUCAAUCAACUCAUAAGAGGGGGGGAAAACCCCUUUGCCCUCCAACUCAACAGCUCGCAGUCAAG”, the binding signal (log2 fold change) was -0.339. The figure for “GGUCACGUCUCAAUCAACUCUUCUCCCAGGGAAAGCCCUGGCAAAUUCAACAGCUCGCAGUCAAG” is 0.0797; for “GGUCACGUCUCAAUCAACUCCCCGGAGGGGGGGAAAACCCCUUUACCCUCAACAUCAACAGCUCGCAGUCAAG” it is -0.226; for “GGUCACGUCUCAAUCAACUCCCACGAGGGGGGGAAAACCCCUUUACCCUCAUAAUCAACAGCUCGCAGUCAAG” it is -0.177. The figure for “GGUCACGUCUCAAUCAACUCAUCUUCAGGAGUUUGCUCCUGUAUUUUCAACAGCUCGCAGUCAAG” is -0.00449; for “GGUCACGUCUCAAUCAACUCUAUCGAGGGGGGGAAAACCCCUUUACCCUCUUCAUCAACAGCUCGCAGUCAAG” it is 0.0731. Take “GGUCACGUCUCAAUCAACUCCAACGAGGGGGGGAAAACCCCUUUACCCUCAUCAUCAACAGCUCGCAGUCAAG”: the binding signal (log2 fold change) was -0.0309. For “GGUCACGUCUCAAUCAACUCAGUUCCCAGGGAAAACCCUGGCUUUUUCAACAGCUCGCAGUCAAG”, the binding signal (log2 fold change) stood at 0.0382.

Turning to “GGUCACGUCUCAAUCAACUCAUCCCCCAGGGAAAACCCUGGCAAUUUCAACAGCUCGCAGUCAAG”, the binding signal (log2 fold change) stood at 0.169. As to “GGUCACGUCUCAAUCAACUCAUUUUCCAGGGAAAGCCCUGGUUAUUUCAACAGCUCGCAGUCAAG”, the binding signal (log2 fold change) is -0.0778.

For the sequence “GGUCACGUCUCAAUCAACUCUUCCUCAGGAGUUUACUCCUGCAUAUUCAACAGCUCGCAGUCAAG”, the binding signal (log2 fold change) was -0.0848. The figure for “GGUCACGUCUCAAUCAACUCAUUUUCCAGGGAAAUCCCUGGCUAUCUCAACAGCUCGCAGUCAAG” is -0.125; for “GGUCACGUCUCAAUCAACUCCUAAGAGGGGGGGAAAACCCCUUUACCCUCAAAUUCAACAGCUCGCAGUCAAG” it is 0.127. “GGUCACGUCUCAAUCAACUCAUCCCCAGGAGUUUGCUCCUGUAAUUUCAACAGCUCGCAGUCAAG”: the binding signal (log2 fold change) was -0.0675. The figure for “GGUCACGUCUCAAUCAACUCUUUCUCCAGGGAAAGCCCUGGUUAACUCAACAGCUCGCAGUCAAG” is -0.011; for “GGUCACGUCUCAAUCAACUCAUUCUCCAGGGAAAACCCUGGUUUUCUCAACAGCUCGCAGUCAAG” it is 0.0993; for “GGUCACGUCUCAAUCAACUCAAUAGAGGGGGGGAAAACCCCUUUGCCCUCAACAUCAACAGCUCGCAGUCAAG” it is 0.421. The value for “GGUCACGUCUCAAUCAACUCAUACGAGGGGGGGAAAACCCCUUUGCCCUCACAAUCAACAGCUCGCAGUCAAG” was -0.414; that for “GGUCACGUCUCAAUCAACUCCUUCGAGGGGGGGAAAACCCCUUUACCCUCUUAUUCAACAGCUCGCAGUCAAG” was -0.621; that for “GGUCACGUCUCAAUCAACUCAUUCCCAGGAGUUUUCUCCUGCUUUUUCAACAGCUCGCAGUCAAG” was -0.0472. Turning to “GGUCACGUCUCAAUCAACUCCUCCGAGGGGGGGAAAACCCCUUUACCCUCAUUAUCAACAGCUCGCAGUCAAG”, the binding signal (log2 fold change) was -0.254. On to “GGUCACGUCUCAAUCAACUCAUCUCCAGGAGUUUUCUCCUGUUAUUUCAACAGCUCGCAGUCAAG”, for which the binding signal (log2 fold change) was -0.153. Turning to “GGUCACGUCUCAAUCAACUCAUCUCCAGGAGUUUCCUCCUGCUUUUUCAACAGCUCGCAGUCAAG”, the binding signal (log2 fold change) came to 0.328.

“GGUCACGUCUCAAUCAACUCAAUCGAGGGGGGGAAAACCCCUUUGCCCUCAAUAUCAACAGCUCGCAGUCAAG”: the binding signal (log2 fold change) came out at 0.0668. As for “GGUCACGUCUCAAUCAACUCUUAAGAGGGGGGGAAAACCCCUUUACCCUCCCAAUCAACAGCUCGCAGUCAAG”, the binding signal (log2 fold change) turned out to be 0.0769. The value for “GGUCACGUCUCAAUCAACUCUAUCCCAGGAGUUUCCUCCUGUUAAUUCAACAGCUCGCAGUCAAG” was 0.0245; that for “GGUCACGUCUCAAUCAACUCAUCUCCCAGGGAAAGCCCUGGUUUAUUCAACAGCUCGCAGUCAAG” was 0.0359; that for “GGUCACGUCUCAAUCAACUCAUCUCCAGGAGUUUACUCCUGUUUUCUCAACAGCUCGCAGUCAAG” was -0.344. The figure for “GGUCACGUCUCAAUCAACUCAAUCCCAGGAGUUUCCUCCUGUAUACUCAACAGCUCGCAGUCAAG” is 0.0945; for “GGUCACGUCUCAAUCAACUCAACGCCAGGAGUUUACUCCUGCUUAUUCAACAGCUCGCAGUCAAG” it is -0.252; for “GGUCACGUCUCAAUCAACUCUAAAGAGGGGGGGAAAACCCCUUUGCCCUCACUUUCAACAGCUCGCAGUCAAG” it is 0.415. The value for “GGUCACGUCUCAAUCAACUCAUCCUCAGGAGUUUUCUCCUGCAUACUCAACAGCUCGCAGUCAAG” was 0.0105.
